Molecules are shown by their SMILES. The whole screen tested about 3,200 compounds, of which about 75 (2%) showed an effect of 50% or more. This is one part of the list.

This assay has as its system T1, S. aureus MSSA476.
T1 construct: MSSA476
The arrangement: species or system S. aureus MSSA476 (TSB) or V. cholerae SAD30 (LB); 384-well bacterial growth screen at 25 uM, OD600 relative to DMSO control. To be noted: relative growth, OD600, TSB; 25 µM; inhibitor.
In the case of `Cn1cc(C=C(C#N)C(=O)NCCc2ccccc2)cn1` [8-L10, 2-cyano-3-(1-methyl-1H-pyrazol-4-yl)-N-(2-phenylethyl)prop-2-enamide], the “% of control remaining” value is on record as 117.842%.

On to `COc1cc(C)c(C(C)NC(=O)CCl)cc1OC` (centres unmarked) [6-M09, 2-chloro-N-[1-(4,5-dimethoxy-2-methylphenyl)ethyl]acetamide], for which the “% of control remaining” value turned out to be 116.439%.

For `N#CC(=Cc1cnn(-c2ccc(Cl)cc2)c1)C(=O)NC1CCCCC1` [8-A08, 3-[1-(4-chlorophenyl)-1H-pyrazol-4-yl]-2-cyano-N-cyclohexylprop-2-enamide], the “% of control remaining” value is on record as 111.203%.

In the case of `CC(Cl)C(=O)Nc1ccc(C(C)(C)C)cc1` (centres unmarked) [4-G12, N-(4-tert-butylphenyl)-2-chloropropanamide], the “% of control remaining” value worked out at 87.2797%.

As to `C=CC(=O)N1CCC(C(=O)NCc2ncnn2CC)CC1` [3-P03, N-[(1-ethyl-1H-1,2,4-triazol-5-yl)methyl]-1-(prop-2-enoyl)piperidine-4-carboxamide], the “% of control remaining” value came to 135.829%.

On to `O=C(CCl)Nc1ccccc1C(=O)c1ccccc1` [4-J06, N-(2-benzoylphenyl)-2-chloroacetamide], for which the “% of control remaining” value turned out to be 85.7551%.

For the compound `C=CC(=O)NCCC(=O)N1CCC2(CC(=O)c3ccccc3O2)C1` (centres unmarked) [1-F12, N-(3-oxo-3-{4-oxo-3,4-dihydrospiro[1-benzopyran-2,3'-pyrrolidin]-1'-yl}propyl)prop-2-enamide], the “% of control remaining” value is listed as 100.923%.

Consider `COc1ccccc1NC(=O)C(C)Cl` (centres unmarked) [5-L20, 2-chloro-N-(2-methoxyphenyl)propanamide], for which the “% of control remaining” value was 99.0893%.

Turning to `COc1ccc(C)cc1NC(=O)C(C)Cl` (centres unmarked) [5-P22, 2-chloro-N-(2-methoxy-5-methylphenyl)propanamide], the “% of control remaining” value came to 87.796%.

With `C=CC(=O)N(Cc1cnn(C2CCC2)c1)C1CCCc2occc21` (centres unmarked) [2-G07, N-[(1-cyclobutyl-1H-pyrazol-4-yl)methyl]-N-(4,5,6,7-tetrahydro-1-benzofuran-4-yl)prop-2-enamide], the “% of control remaining” value is 127.763%.

For `CC(=Cc1ccccc1)C=C(C#N)C(=O)Nc1nccs1` [8-F08, 2-cyano-4-methyl-5-phenyl-N-(1,3-thiazol-2-yl)penta-2,4-dienamide], the “% of control remaining” value was found to be 126.473%.

`CC(C)C(NC(=O)CCl)c1ccc(F)cc1` (centres unmarked) [4-E13, 2-chloro-N-[1-(4-fluorophenyl)-2-methylpropyl]acetamide]: the “% of control remaining” value amounted to 99.0948%.

In the case of `CCOC=C(C#N)C(=O)N1CCN(S(=O)(=O)c2cc[nH]n2)CC1` [9-D06, 3-ethoxy-2-[4-(1H-pyrazole-3-sulfonyl)piperazine-1-carbonyl]prop-2-enenitrile], the “% of control remaining” value came to 105.468%.

In the case of `CC(Cl)C(=O)NCCc1nc2cc(F)ccc2s1` (centres unmarked) [7-P11, 2-chloro-N-[2-(5-fluoro-1,3-benzothiazol-2-yl)ethyl]propanamide], the “% of control remaining” value was determined as 101.099%.

`C=CC(=O)NCCc1ccccc1OC` [2-O03, N-[2-(2-methoxyphenyl)ethyl]prop-2-enamide]: the “% of control remaining” value amounted to 95.7354%.

`C=CC(=O)N(CC)CC(=O)N1CCN(c2ccsc2C#N)CC1` [3-L05, N-{2-[4-(2-cyanothiophen-3-yl)piperazin-1-yl]-2-oxoethyl}-N-ethylprop-2-enamide]: the “% of control remaining” value is given as 103.091%.

Turning to `C=CC(=O)N1CCCC1c1cn(C)nc1C` (centres unmarked) [3-M09, 1-[2-(1,3-dimethyl-1H-pyrazol-4-yl)pyrrolidin-1-yl]prop-2-en-1-one], the “% of control remaining” value worked out at 114.236%.

In the case of `CC(C)NC(=O)C(C#N)=Cc1ccc2ccccc2c1` [9-C13, 2-cyano-3-(naphthalen-2-yl)-N-(propan-2-yl)prop-2-enamide], the “% of control remaining” value is 101.273%.

On to `Cc1cnc(-c2cccc(NC(=O)C(C#N)=Cc3ccco3)c2)o1` [9-M18, 2-cyano-3-(furan-2-yl)-N-[3-(5-methyl-1,3-oxazol-2-yl)phenyl]prop-2-enamide], for which the “% of control remaining” value came to 100.674%.

As to `C=CC(=O)N(CCC(N)=O)C1CCOc2ccccc21` (centres unmarked) [3-F13, N-(2-carbamoylethyl)-N-(3,4-dihydro-2H-1-benzopyran-4-yl)prop-2-enamide], the “% of control remaining” value came out at 116.326%.

For `O=C(CCl)Nc1nc(-c2cccs2)cs1` [5-D18, 2-chloro-N-[4-(thiophen-2-yl)-1,3-thiazol-2-yl]acetamide], the “% of control remaining” value was found to be 71.7668%.

On to `COC(=O)c1ccc(C=C(C#N)C(=O)NC(C)C)n1C` [9-P12, methyl 5-{2-cyano-2-[(propan-2-yl)carbamoyl]eth-1-en-1-yl}-1-methyl-1H-pyrrole-2-carboxylate], for which the “% of control remaining” value was 89.8876%.

Consider `CC(O)=C(C#N)C(=O)Nc1ccc(-c2ccccc2Cl)c(Cl)c1` [9-L22, 2-cyano-N-{2,2'-dichloro-[1,1'-biphenyl]-4-yl}-3-hydroxybut-2-enamide], for which the “% of control remaining” value turned out to be 33.2584%.

Turning to `C=CC(=O)Nc1ccc(C(=O)N(C)C[C@@H]2CCC(=O)N2)cc1` [2-L18, N-methyl-N-{[(2S)-5-oxopyrrolidin-2-yl]methyl}-4-(prop-2-enamido)benzamide], the “% of control remaining” value stood at 106.179%.

For the compound `N#CC(=Cc1cccc(F)c1)C(=O)NCc1ccccc1` [9-K09, N-benzyl-2-cyano-3-(3-fluorophenyl)prop-2-enamide], the “% of control remaining” value turned out to be 92.5843%.

With `C=CC(=O)N1CCC(C(=O)NCc2nccn2-c2ccccc2)CC1` [3-B03, N-[(1-phenyl-1H-imidazol-2-yl)methyl]-1-(prop-2-enoyl)piperidine-4-carboxamide], the “% of control remaining” value worked out at 120.505%.

For `O=C(CCl)Nc1ccc(OC(F)F)cc1` [4-J10, 2-chloro-N-[4-(difluoromethoxy)phenyl]acetamide], the “% of control remaining” value was found to be 103.668%.

With `N#CC(=Cc1cccc(O)c1)C(=O)Nc1ccccc1C(=O)O` [9-O16, 2-[2-cyano-3-(3-hydroxyphenyl)prop-2-enamido]benzoic acid], the “% of control remaining” value is listed as 71.6105%.

Turning to `CCc1cc(SC#N)cc(C)c1NC(=O)CCl` [4-M04, 2-chloro-N-[4-(cyanosulfanyl)-2-ethyl-6-methylphenyl]acetamide], the “% of control remaining” value turned out to be 101.382%.
